Data from publication PMC4336329 (PLoS ONE, 2015).
In all, about 310,000 compounds went through this assay and about 14,000 (4.5%) showed an effect of 50% or more. The effect is printed as a negative number. This is one part of the list.

These compounds were tested against human ether-à-go-go-related gene (hERG) potassium channel (human, UniProt Q12809) (assay: primary screen, population patch clamp on CHO cells stably expressing hERG).
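Note: peak tail current of the secondary pulse compared with the same well before compound.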

Chain of human ether-à-go-go-related gene (hERG) potassium channel (Q12809 whole entry, looked up): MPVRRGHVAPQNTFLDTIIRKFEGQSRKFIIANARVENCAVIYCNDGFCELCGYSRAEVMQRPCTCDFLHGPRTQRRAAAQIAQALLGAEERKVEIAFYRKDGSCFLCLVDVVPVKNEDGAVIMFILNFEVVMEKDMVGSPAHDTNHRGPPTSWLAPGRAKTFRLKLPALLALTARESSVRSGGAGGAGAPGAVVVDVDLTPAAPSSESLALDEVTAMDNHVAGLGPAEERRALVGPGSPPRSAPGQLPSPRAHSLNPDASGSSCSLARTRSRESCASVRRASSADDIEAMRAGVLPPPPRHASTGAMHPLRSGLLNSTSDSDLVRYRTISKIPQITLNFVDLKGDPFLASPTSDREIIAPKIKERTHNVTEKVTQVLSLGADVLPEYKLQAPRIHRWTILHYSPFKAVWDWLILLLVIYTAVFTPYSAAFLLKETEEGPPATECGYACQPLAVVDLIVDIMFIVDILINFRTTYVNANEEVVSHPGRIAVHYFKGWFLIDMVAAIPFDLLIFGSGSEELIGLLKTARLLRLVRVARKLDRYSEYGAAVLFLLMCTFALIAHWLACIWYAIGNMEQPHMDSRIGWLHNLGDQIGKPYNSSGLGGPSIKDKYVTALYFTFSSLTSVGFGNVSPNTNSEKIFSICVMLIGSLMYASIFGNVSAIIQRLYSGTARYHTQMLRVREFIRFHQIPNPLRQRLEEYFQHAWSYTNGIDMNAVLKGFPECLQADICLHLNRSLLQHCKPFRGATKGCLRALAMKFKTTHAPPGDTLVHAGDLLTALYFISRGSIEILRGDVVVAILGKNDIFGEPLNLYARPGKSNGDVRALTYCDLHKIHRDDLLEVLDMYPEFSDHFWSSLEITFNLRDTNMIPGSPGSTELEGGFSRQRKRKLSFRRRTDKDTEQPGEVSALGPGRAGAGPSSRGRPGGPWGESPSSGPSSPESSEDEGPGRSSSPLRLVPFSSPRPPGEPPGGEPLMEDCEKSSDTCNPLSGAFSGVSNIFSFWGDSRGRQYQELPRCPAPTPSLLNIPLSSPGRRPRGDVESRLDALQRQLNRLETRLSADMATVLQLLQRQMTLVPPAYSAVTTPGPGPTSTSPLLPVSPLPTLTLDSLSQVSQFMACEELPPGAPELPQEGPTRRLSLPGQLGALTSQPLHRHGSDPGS

Structure (SMILES)	hERG current change (%, negative = inhibition) at 10uM [%]
Cc1csc(CN(C)C(=O)CC2C(=O)NCCN2Cc2ccc(F)c(F)c2)n1 (stereo not drawn)	6.02
CC(=O)c1c(C)[nH]c(C(=O)Nc2ccc(C)cn2)c1C	1.21
CCC(C)N(C(=O)CSc1nnc(-c2ccco2)n1C)C1CCS(=O)(=O)C1 (stereo not drawn)	-12.9
COc1ccccc1-c1csc2ncnc(Sc3nnnn3C)c12	-13.8
CCCC(=O)C1=C(N2CCCCC2)CC(C)(C)C(C(=O)OC)C1=O (stereo not drawn)	28
CCCCCCNS(=O)(=O)c1ccc(Cl)s1	-12.9
O=c1c2ccccc2[nH]c(=S)n1CCN1CCc2ccccc2C1	-33.7
COc1ccc(-c2cc(C)no2)cc1S(=O)(=O)NCc1ccc(OC(C)C)cc1	-16.9
O=C1NC(=O)N(Cc2ccccc2Cl)C(=O)/C1=C/N1CCOCC1	-9.59
Cc1cc(C)cc(NC(=O)Cn2nnc(C(=O)NCc3cccs3)c2N)c1	4.61
CCCCCCCC[n+]1cccc(C(=O)N(CC)CC)c1.[Br-]	13
COc1ccccc1N(C)S(=O)(=O)c1ccc(C(=O)NC2CCCCCC2)cc1	-11.4
O=C(Nc1ccc(Br)cc1)c1ccc(F)c(S(=O)(=O)N2CCN(c3ccccn3)CC2)c1	20.1
CCSc1nnc(NC(=O)CSc2nncc(=O)n2N)s1	20.2
CCOc1ccc(C(=O)N2CCc3cc(OC)c(OC)cc3C2)cc1OCC	2.45
CC(=O)c1cnc(-c2ccccn2)s1	37.8
COc1cccc(CC(=O)Nc2ccc(S(=O)(=O)N3CCOCC3)cc2)c1	-6.18
Cc1ccc(S(=O)(=O)NCCCN2CCOCC2)c(C)c1	11.1
CCN(CC)c1ccc(C(=O)n2cnc3ccccc32)cc1	-19.6
CCSc1nnc(NC(=O)c2cc(C)nc3ccccc23)s1	-12.3
O=C(Nc1nc(-c2ccccc2)cs1)c1ccco1	-47.8
CC(C(=O)Nc1nnc(C2CC2)s1)N1C(=O)C2CC=CCC2C1=O (stereo not drawn)	-2.62
CC(=O)Nc1nnc(SCC(=O)NC2CC2)s1	13.6

Structure (SMILES)	hERG current change (%, negative = inhibition) at 10uM [%]
COc1ccc(Cc2nc3c4c(ncn3n2)Oc2ccc3ccccc3c2C4c2ccc(OC)c(OC)c2)cc1 (stereo not drawn)	8.46
Cc1ccc2oc(-c3ccc(C)c(NC(=S)NC(=O)c4cccs4)c3)nc2c1	27.6
CN(CC(=O)Nc1cccc(F)c1)C(=O)CCCNC(=O)c1ccc(Cl)cc1	-36.7
O=C(NC1CCN(S(=O)(=O)c2cccc(Cl)c2)CC1)C1CCCCC1	14.5
CCOC(=O)c1c(NC(=O)c2cc(C(C)C)on2)sc(C(C)=O)c1C	16.7
CCN1CCN(S(=O)(=O)c2ccc(OC)c3ccccc23)CC1	-10.3
Cn1ncc([N+](=O)[O-])c1C(=O)Nc1ccc2c(c1)OCCO2	7.62
COc1ccccc1NC(=O)COc1ccc2c(c1)OCO2	11.1
O=C1c2ccc(Br)cc2C(=O)N1c1ccc(Cl)cn1	3.66
COC(=O)C(C)n1cnc2c(nnn2-c2cccc(Cl)c2)c1=O (stereo not drawn)	-13.4
CCN(CC)S(=O)(=O)c1cccc(C(=O)N/N=C/c2ccc(N3CCOCC3)cc2)c1	21.7
O=C(NCc1ccc(F)cc1)C(=O)NCC1OCCN1S(=O)(=O)c1ccc2c(c1)OCCO2 (stereo not drawn)	-14.1
O=C(c1ccccc1)N1CCC(c2nc3c(nnn3Cc3ccco3)c(=O)[nH]2)CC1	-32.2
COc1cccc(CNC(=O)Cn2ccc3cc(S(=O)(=O)N4CCCC4)ccc32)c1OC	9.36
COCCCNCCOCCOc1ccc(Cl)cc1C(C)(C)C.O=C(O)C(=O)O	-50.6
COc1ccc(C2CN=NC23CCc2ccccc2C3=O)cc1 (stereo not drawn)	-16
CCOC(=O)C(NS(=O)(=O)c1ccc(C)cc1)(C(F)(F)F)P(=O)(OCC(C)C)OCC(C)C (stereo not drawn)	4.41
CCCCCC1CC(=O)N(Cc2ccc(Cl)cc2)C(=O)N1 (stereo not drawn)	-7.2
Cc1cc(C)c(NC2=NCCCS2)c(C)c1.Cl	8.57
Cc1oc2cc3oc(=O)c(CCC(=O)NCc4ccccn4)c(C)c3cc2c1C	-1.73
COc1ccc(CNCCC(c2ccc(F)cc2)c2ccc(OC)cc2)cc1 (stereo not drawn)	-82.3
COc1cccc(/C(C)=N/NC(=O)c2cc(-c3cccnc3)nc3ccccc23)c1	-7
Cc1c(NC(=O)c2ccc(Br)s2)c(=O)n(-c2ccccc2)n1C	14.5

Structure (SMILES)	hERG current change (%, negative = inhibition) at 10uM [%]
Cc1n[nH]c(C)c1S(=O)(=O)NCCc1ccc(Cl)cc1	5
COc1ccc(CNC(=O)C(OC(=O)c2cccs2)C(C)C)cc1 (stereo not drawn)	-11.8
Cc1nc(N2CCOCC2)c(C#N)c2c1COC(C)(C)C2	20
CCCN(C(=O)CSc1nnc2ccccn12)C1CCS(=O)(=O)C1 (stereo not drawn)	16.6
COc1cccc(CNC(=O)CCC(=O)N2CC(C)Oc3ccccc32)c1OC (stereo not drawn)	5.25
O=C(NC1CCCCC1)c1ccc(COCC(F)(F)F)o1	-0.702
Cc1cc(C)nc(SCC(=O)Nc2ccc(S(=O)(=O)NC(C)(C)C)cc2)n1	-13.7
O=C(CN(CC1CCCO1)C(=O)CNS(=O)(=O)c1ccc(Cl)cc1)NCc1ccc(F)cc1 (stereo not drawn)	-25
CC1=C(C(=O)c2ccccc2)C(c2ccc(N3CCOCC3)cc2)NC(=O)N1 (stereo not drawn)	16
COc1ccccc1OCC(=O)Nc1ncc(C)s1	-6.77
C=CCn1c(O)c(C(CC)=Nc2ccc(C(=O)O)cc2)c(=O)[nH]c1=O	15.4
COc1ccccc1C1SCCN1S(=O)(=O)c1cccc(C(F)(F)F)c1 (stereo not drawn)	15.4
CCOC(=O)CNC(=S)N(Cc1ccccc1)Cc1cccs1	-17.3
CCC(=O)Nc1nc(OC)cc(OC)n1	6.21
Cc1cc(N/N=C/c2ccccc2O)nc(-c2ccccc2O)n1	14.7
O=C(CN1C(=O)CSc2ccccc21)Nc1ccc2c(c1)OCCO2	2.65
CC1CCCC(NC(=O)COC(=O)c2ccccc2[N+](=O)[O-])C1C (stereo not drawn)	11.4
O=Cc1cn(CC(=O)Nc2ccc(F)cc2)c2ccccc12	11.2
O=C(CSc1ccccc1)N1CCCC(N2CCN(c3ccccc3)CC2)C1 (stereo not drawn)	-33.7
CC1(c2ccc(OC(F)F)cc2)NC(=O)N(CC(=O)Nc2ccccc2)C1=O (stereo not drawn)	-51.3
CCOC(=O)[C@H]1[C@H]2COc3ccc(C)cc3[C@@H]2N2C(=O)c3cc(OC)c(OC)cc3NC(=O)[C@@]12C	-17.3
CCCCCn1cnc2sc(CC)cc2c1=O	-24.6
CCN(CC)S(=O)(=O)c1ccc2oc(C(=O)NC3CC3)c(C)c2c1	-7.09

Structure (SMILES)	hERG current change (%, negative = inhibition) at 10uM [%]
CC(C)CCOP(N)(=O)Oc1ccccc1 (stereo not drawn)	9.05
O=C(CCCc1ccccc1)Nc1ccnn1C1CCN(Cc2ccccc2F)CC1	-49
Cc1c(CN2CCC(C(=O)Nc3ccc(Oc4ccccc4)nc3)CC2)cnn1C	-32.8
CCOC(=O)N1CCC(NC(=O)c2ccc(CS(=O)(=O)c3c(Cl)cccc3Cl)o2)CC1	-34.5
Cc1cc(C(=O)C(C)OC(=O)c2cnccn2)c(C)n1-c1ccccc1 (stereo not drawn)	-27.3
Cc1sc2ncnc(SCC(=O)N3CCCCC3)c2c1C	10
N#Cc1c(/N=C/c2ccco2)oc(-c2ccccc2)c1-c1ccccc1	9.86
O=C(Nc1ccccc1)Nc1ccc(Br)cc1F	10
Cl.N=c1ccn(Cc2c(Cl)cccc2Cl)cc1	15.3
O=C(CSc1nc(-c2ccco2)cc(C(F)(F)F)n1)NCCCN1CCOCC1	16.6
COc1ccc(Cl)cc1S(=O)(=O)n1cnc2ccccc21	3.79
Cc1cc(S(=O)(=O)Nc2ccc(C(=O)NCC3(N(C)C)CCCCC3)cc2)ccc1F	-49.2
CCOC(=O)N1CCN(C(=O)COc2cccc3c2CCN(Cc2ccc(F)cc2)C3=O)CC1	-61
Cc1nc([N+](=O)[O-])cn1CC(=O)c1ccc(OC(F)(F)F)cc1	15.6
COC(=O)Cc1cc(=O)n2[nH]c(C)nc2n1	-15.6
COc1ccc([N+](=O)[O-])cc1C1NN=C(c2ccccc2O)S1 (stereo not drawn)	11.1
CN(C)S(=O)(=O)c1ccc(C(=O)Nc2ccccc2C(=O)O)cc1	1.38
CCCCNC(=S)N/N=C/c1sccc1C	30.2
Cc1csc(NC(=O)c2ccc(S(=O)(=O)N3CCN(C)CC3)cc2)n1	-5.45
O=C(O)CCCCCCCCc1cn(CCc2c[nH]c3ccccc23)nn1	4.49
S=C(Nc1ccc(Br)cc1)NC1CCCC1	-0.909
